# Source: the supplement of paper PMC8728848
# The list shows a part of the results.
# B1: PX9937B-bvu-524-33-524 (Bacteroides vulgatus) (protein)
# chain: GTAYWKNPDQFTAFNTGLHALLREKSYNFFLLGEPRADIYGDNPIGGEASQGMERLPFNTINKENVGISNYGDMYKIINQINQMIAKTTETTILTEATQNYYLGEAYGMRAYLYFHLLRSWGDVVLYLDYTEGQNLDLSNITKGVSPATEVMEQIKKDIQASENAFGSDYSFKLGRHFWSAAATQMLKGEAYLWSGRQMNGGNSDYTIAKNAFENVKKADVGLVTSSFKDIFSFENKKNKEMIFTIHNGKDEYEMWGGYYRMRLIPAQDKMVKIYCDENGNSFVGTPDAQLNGLTQLQVRREFYFKGFRNNDTRWTTSLKAVYKKDAQGVVSYFGPITYKFQGTMLEGGSTRSFLDDFPIYRYADCLLQLAMAKVLLGEDPTEEINAVRERAYGSKYFNEHKAEIAYPNDNDPEFYTDNKWMKPDNAGALEAILKERLREFMFEGKRWYDIRLLGWDYVHQYSSAEQSRLLWPIDAGTLTNNSALKQTPGYE
# Key:
# Experiment in all cases: glycan array binding signal (z-score within array); higher = stronger binding
# Conditions in all cases: glycan notation: IUPAC condensed, linker removed
# [1] = target: GlcNAc(b1-2)[GlcNAc(b1-4)]Man(a1-3)[GlcNAc(b1-4)][GlcNAc(b1-2)[GlcNAc(b1-6)]Man(a1-6)]Man(b1-4)GlcNAc(b1-4)GlcNAc
# In short: (§1)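 Arrays were curated from the Consortium for Functional Glycomics database, 3228 in total, and kept only where the protein sequence was available. Binding is expressed as a within-array Z-score. This score was averaged across arrays of the same protein sequence at different concentrations or buffers and across linkers, and negative values can be read as non-binding.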
# [2] = target: GlcNAc(b1-2)[GlcNAc(b1-4)]Man(a1-3)[GlcNAc(b1-4)][GlcNAc(b1-2)[GlcNAc(b1-6)]Man(a1-6)]Man(b1-4)GlcNAc(b1-4)[Fuc(a1-6)]GlcNAc
# In short: as §1
# [3] = target: GlcNAc(b1-2)[GlcNAc(b1-6)]Man(a1-6)[GlcNAc(b1-2)Man(a1-3)]Man(b1-4)GlcNAc(b1-4)GlcNAc
# In short: as §1
# [4] = target: GlcNAc(b1-2)[GlcNAc(b1-6)]Man(a1-6)[GlcNAc(b1-2)Man(a1-3)]Man(b1-4)GlcNAc(b1-4)[Fuc(a1-6)]GlcNAc
# In short: as §1
# [5] = target: GlcNAc(b1-2)[GlcNAc(b1-6)]Man(a1-6)[GlcNAc(b1-4)][GlcNAc(b1-2)Man(a1-3)]Man(b1-4)GlcNAc(b1-4)GlcNAc
# In short: as §1
# GlcNAc(b1-3)Fuc = target: GlcNAc(b1-3)Fuc
# In short: as §1
# GlcNAc(b1-3)Gal = target: GlcNAc(b1-3)Gal
# In short: as §1
# [6] = target: GlcNAc(b1-3)Gal(b1-3)GalNAc
# In short: as §1
# GlcNAc(b1-3)Gal(b1-4)Glc = target: GlcNAc(b1-3)Gal(b1-4)Glc
# In short: as §1
# [7] = target: GlcNAc(b1-3)Gal(b1-4)GlcNAc
# In short: as §1
# [8] = target: GlcNAc(b1-3)Gal(b1-4)GlcNAc(b1-2)Man(a1-3)[GlcNAc(b1-3)Gal(b1-4)GlcNAc(b1-2)Man(a1-6)]Man(b1-4)GlcNAc(b1-4)GlcNAc
# In short: as §1
# [9] = target: GlcNAc(b1-3)Gal(b1-4)GlcNAc(b1-2)Man(a1-3)[GlcNAc(b1-3)Gal(b1-4)GlcNAc(b1-2)Man(a1-6)]Man(b1-4)GlcNAc(b1-4)[Fuc(a1-6)]GlcNAc
# In short: as §1
# [10] = target: GlcNAc(b1-3)Gal(b1-4)GlcNAc(b1-2)[GlcNAc(b1-3)Gal(b1-4)GlcNAc(b1-6)]Man(a1-6)[GlcNAc(b1-3)Gal(b1-4)GlcNAc(b1-2)Man(a1-3)]Man(b1-4)GlcNAc(b1-4)GlcNAc
# In short: as §1
# [11] = target: GlcNAc(b1-3)Gal(b1-4)GlcNAc(b1-3)Gal(b1-4)GlcNAc
# In short: as §1
# [12] = target: GlcNAc(b1-3)Gal(b1-4)GlcNAc(b1-3)Gal(b1-4)GlcNAc(b1-2)Man(a1-3)[GlcNAc(b1-3)Gal(b1-4)GlcNAc(b1-3)Gal(b1-4)GlcNAc(b1-2)Man(a1-6)]Man(b1-4)GlcNAc(b1-4)GlcNAc
# In short: as §1
# [13] = target: GlcNAc(b1-3)Gal(b1-4)GlcNAc(b1-3)Gal(b1-4)GlcNAc(b1-2)Man(a1-3)[GlcNAc(b1-3)Gal(b1-4)GlcNAc(b1-3)Gal(b1-4)GlcNAc(b1-2)Man(a1-6)]Man(b1-4)GlcNAc(b1-4)[Fuc(a1-6)]GlcNAc
# In short: as §1
# [14] = target: GlcNAc(b1-3)Gal(b1-4)GlcNAc(b1-3)Gal(b1-4)GlcNAc(b1-2)[GlcNAc(b1-3)Gal(b1-4)GlcNAc(b1-3)Gal(b1-4)GlcNAc(b1-6)]Man(a1-6)[GlcNAc(b1-3)Gal(b1-4)GlcNAc(b1-3)Gal(b1-4)GlcNAc(b1-2)Man(a1-3)]Man(b1-4)GlcNAc(b1-4)[Fuc(a1-6)]GlcNAc
# In short: as §1
# [15] = target: GlcNAc(b1-3)Gal(b1-4)GlcNAc(b1-3)Gal(b1-4)GlcNAc(b1-3)Gal(b1-4)GlcNAc(b1-2)Man(a1-3)[GlcNAc(b1-3)Gal(b1-4)GlcNAc(b1-3)Gal(b1-4)GlcNAc(b1-3)Gal(b1-4)GlcNAc(b1-2)Man(a1-6)]Man(b1-4)GlcNAc(b1-4)GlcNAc
# In short: as §1
# [16] = target: GlcNAc(b1-3)Gal(b1-4)GlcNAc(b1-3)Gal(b1-4)GlcNAc(b1-3)Gal(b1-4)GlcNAc(b1-2)Man(a1-3)[GlcNAc(b1-3)Gal(b1-4)GlcNAc(b1-3)Gal(b1-4)GlcNAc(b1-3)Gal(b1-4)GlcNAc(b1-2)Man(a1-6)]Man(b1-4)GlcNAc(b1-4)[Fuc(a1-6)]GlcNAc
# In short: as §1
# [17] = target: GlcNAc(b1-3)Gal(b1-4)GlcNAc(b1-3)Gal(b1-4)GlcNAc(b1-3)Gal(b1-4)GlcNAc(b1-2)[GlcNAc(b1-3)Gal(b1-4)GlcNAc(b1-3)Gal(b1-4)GlcNAc(b1-3)Gal(b1-4)GlcNAc(b1-6)]Man(a1-6)[GlcNAc(b1-3)Gal(b1-4)GlcNAc(b1-3)Gal(b1-4)GlcNAc(b1-3)Gal(b1-4)GlcNAc(b1-2)Man(a1-3)]Man(b1-4)GlcNAc(b1-4)[Fuc(a1-6)]GlcNAc
# In short: as §1
# [18] = target: GlcNAc(b1-3)Gal(b1-4)GlcNAc(b1-3)Gal(b1-4)GlcNAc(b1-3)Gal(b1-4)GlcNAc(b1-3)Gal(b1-4)GlcNAc(b1-2)Man(a1-3)[GlcNAc(b1-3)Gal(b1-4)GlcNAc(b1-3)Gal(b1-4)GlcNAc(b1-3)Gal(b1-4)GlcNAc(b1-3)Gal(b1-4)GlcNAc(b1-2)Man(a1-6)]Man(b1-4)GlcNAc(b1-4)GlcNAc
# In short: as §1
# [19] = target: GlcNAc(b1-3)Gal(b1-4)GlcNAc(b1-3)Gal(b1-4)GlcNAc(b1-3)Gal(b1-4)GlcNAc(b1-3)Gal(b1-4)GlcNAc(b1-2)Man(a1-3)[GlcNAc(b1-3)Gal(b1-4)GlcNAc(b1-3)Gal(b1-4)GlcNAc(b1-3)Gal(b1-4)GlcNAc(b1-3)Gal(b1-4)GlcNAc(b1-2)Man(a1-6)]Man(b1-4)GlcNAc(b1-4)[Fuc(a1-6)]GlcNAc
# In short: as §1
# [20] = target: GlcNAc(b1-3)Gal(b1-4)GlcNAc(b1-3)Gal(b1-4)GlcNAc(b1-3)Gal(b1-4)GlcNAc(b1-3)Gal(b1-4)GlcNAc(b1-2)[GlcNAc(b1-3)Gal(b1-4)GlcNAc(b1-3)Gal(b1-4)GlcNAc(b1-3)Gal(b1-4)GlcNAc(b1-3)Gal(b1-4)GlcNAc(b1-6)]Man(a1-6)[GlcNAc(b1-3)Gal(b1-4)GlcNAc(b1-3)Gal(b1-4)GlcNAc(b1-3)Gal(b1-4)GlcNAc(b1-3)Gal(b1-4)GlcNAc(b1-2)Man(a1-3)]Man(b1-4)GlcNAc(b1-4)[Fuc(a1-6)]GlcNAc
# In short: as §1
# [21] = target: GlcNAc(b1-3)Gal(b1-4)GlcNAc(b1-3)Gal(b1-4)GlcNAc(b1-3)GalNAc
# In short: as §1
# [22] = target: GlcNAc(b1-3)Gal(b1-4)GlcNAc(b1-3)GalNAc
# In short: as §1
# [23] = target: GlcNAc(b1-3)Gal(b1-4)GlcNAc(b1-3)[GlcNAc(b1-3)Gal(b1-4)GlcNAc(b1-3)]GalNAc
# In short: as §1
# [24] = target: GlcNAc(b1-3)Gal(b1-4)GlcNAc(b1-6)[Gal(b1-3)]GalNAc
# In short: as §1
# [25] = target: GlcNAc(b1-3)Gal(b1-4)GlcNAc(b1-6)[GlcNAc(b1-3)Gal(b1-3)]GalNAc
# In short: as §1
# [26] = target: GlcNAc(b1-3)Gal(b1-4)GlcNAc(b1-6)[GlcNAc(b1-3)]Gal(b1-4)GlcNAc
# In short: as §1
# GlcNAc(b1-3)GalNAc = target: GlcNAc(b1-3)GalNAc
# In short: as §1
# GlcNAc(b1-3)Man = target: GlcNAc(b1-3)Man
# In short: as §1
# [27] = target: GlcNAc(b1-3)[GlcNAc(b1-4)][GlcNAc(b1-6)]GlcNAc
# In short: as §1
# [28] = target: GlcNAc(b1-3)[GlcNAc(b1-6)]Gal(b1-4)GlcNAc
# In short: as §1
# [29] = target: GlcNAc(b1-3)[GlcNAc(b1-6)]GalNAc
# In short: as §1
# [30] = target: GlcNAc(b1-4)Gal(b1-4)GlcNAc
# In short: as §1
# GlcNAc(b1-4)GlcNAc = target: GlcNAc(b1-4)GlcNAc
# In short: as §1
# [31] = target: GlcNAc(b1-4)GlcNAc(b1-4)GlcNAc
# In short: as §1
# [32] = target: GlcNAc(b1-4)GlcNAc(b1-4)GlcNAc(b1-4)GlcNAc(b1-4)GlcNAc
# In short: as §1
binder,measurement,setting,value
B1,glycan array binding signal (z-score),[1],-0.343
same,glycan array binding signal (z-score),[2],-0.459
same,glycan array binding signal (z-score),[3],-0.25
same,glycan array binding signal (z-score),[4],-0.01
same,glycan array binding signal (z-score),[5],-0.242
same,glycan array binding signal (z-score),GlcNAc(b1-3)Fuc,-0.272
same,glycan array binding signal (z-score),GlcNAc(b1-3)Gal,-0.511
same,glycan array binding signal (z-score),[6],-0.154
same,glycan array binding signal (z-score),GlcNAc(b1-3)Gal(b1-4)Glc,-0.409
same,glycan array binding signal (z-score),[7],-0.401
same,glycan array binding signal (z-score),[8],-0.422
same,glycan array binding signal (z-score),[9],0.392
same,glycan array binding signal (z-score),[10],0.028
same,glycan array binding signal (z-score),[11],-0.3
same,glycan array binding signal (z-score),[12],0.263
same,glycan array binding signal (z-score),[13],-0.073
same,glycan array binding signal (z-score),[14],-0.185
same,glycan array binding signal (z-score),[15],-0.316
same,glycan array binding signal (z-score),[16],1.52
same,glycan array binding signal (z-score),[17],0.129
same,glycan array binding signal (z-score),[18],1.28
same,glycan array binding signal (z-score),[19],5.78
same,glycan array binding signal (z-score),[20],-0.229
same,glycan array binding signal (z-score),[21],-0.217
same,glycan array binding signal (z-score),[22],-0.5
same,glycan array binding signal (z-score),[23],-0.108
same,glycan array binding signal (z-score),[24],-0.376
same,glycan array binding signal (z-score),[25],0.197
same,glycan array binding signal (z-score),[26],-0.522
same,glycan array binding signal (z-score),GlcNAc(b1-3)GalNAc,-0.167
same,glycan array binding signal (z-score),GlcNAc(b1-3)Man,0.006
same,glycan array binding signal (z-score),[27],-0.212
same,glycan array binding signal (z-score),[28],-0.348
same,glycan array binding signal (z-score),[29],-0.209
same,glycan array binding signal (z-score),[30],-0.385
same,glycan array binding signal (z-score),GlcNAc(b1-4)GlcNAc,-0.24
same,glycan array binding signal (z-score),[31],-0.256
same,glycan array binding signal (z-score),[32],-0.489
